According to paper PMC12136788:
The other results are listed elsewhere or left out.

T1: UNK ZnF1-3 (human, UniProt Q9C0B0 31-174)
T1 sequence: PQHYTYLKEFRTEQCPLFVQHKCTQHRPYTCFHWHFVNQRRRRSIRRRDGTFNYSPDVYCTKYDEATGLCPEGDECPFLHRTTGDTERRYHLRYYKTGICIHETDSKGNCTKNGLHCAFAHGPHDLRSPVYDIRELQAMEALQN

B1: chr1:163112212:163112213:-_ENSG00000143248_ENST00000313961|hu_hu|hu_hu_hu_mus_False|38_58 (ssRNA)
RNA: GGGAGUUCUACAGUCCGACGAUCUUUUAUUAUCAGUAAGAGUGAGUUACAUACUAGGCAAAGUAUUGGAUACAAUAUUCUAAAGAUAAACACUAUUUUUCUUGAAUUUAAAACUUUAUGAGCGAAGUGCUGGCACAGGACUUACAACAGAGGAUUGAGCAUCA
B2: chr1:82727704:82727705:+_ENSMUSG00000026150_ENSMUST00000078332|mus_mus|FALSE|FALSE (ssRNA)
RNA: GGGAGUUCUACAGUCCGACGAUCCAGAGGUUUAAAGGGAGUGGACUGGAUAAGGUCAAGAUCUGCUGGUCUUGAAAAUGAAAUGUCUUCAUUAUUUCCUGUAACCACGAUCCUCUCUGGGACUUGCAUUAUCACACUGGCAUUCAACAGAGGAUUGAGCAUCA
B3: chr14:66974463:66974464:+_ENSMUSG00000022044_ENSMUST00000074523|mus_hu|mus_mus_mus_hu_False|78_88 (ssRNA)
RNA: GGGAGUUCUACAGUCCGACGAUCUUGUAGGACGACUUAUUCAGGGGAUCAGACAAGAAGCAAGAGCAGAACAAGGACACCAGCGGGAGCUCCUUCAUCUUCUCUUUGUAGGCAGCAAGGGUCAUGUUUCUGGGAUCUGGUGGCCAACAGAGGAUUGAGCAUCA
B4: 70346265_70346869_2708_CDS_ENSG00000184634_ENST00000374080|human|control|control (ssRNA)
RNA: GGGAGUUCUACAGUCCGACGAUCCGAGGAUUUGAGAAGCAGCUCAGCCUCAACUACACUCAGUUCAUUCAGCAGCUGAAUGGCAAAGUCGAUGAGGCCACUGAUGCUGAGUGAAUAUUCCAUGAGGUCGAAGAUGAACUGCACCAACAGAGGAUUGAGCAUCA
B5: chr19:53703180:53703181:+_ENSMUSG00000024974_ENSMUST00000025930|mus_mus|FALSE|FALSE (ssRNA)
RNA: GGGAGUUCUACAGUCCGACGAUCAUUUUGAACAUGCUGGUUUAUACCUUUUCGCCGAAAAUGUUCUAGCACUUUGUUAAUGCUAUCUAUUCCAUUUAAAAUGGCCUUUCCUGUUGCCGCUCUAAGAAGUUGCUGCUUCUUCUCCAACAGAGGAUUGAGCAUCA
B6: chr18:34476965:34476966:+_ENSMUSG00000005871_ENSMUST00000115781|mus_hu|motif|central (ssRNA)
RNA: GGGAGUUCUACAGUCCGACGAUCCAAUUUUCUUCUUAAGGUUGGGCUUGGAGCUUCUUUGAUGAAAGUUGACUGGCGUACGGAUACAGGUCUUUCUGAUCUAUCAGAUUCACUUCCACUUGAUUUAGUUGAAGACAUUCUAGACAACAGAGGAUUGAGCAUCA
B7: chr16:42174308:42174309:+_ENSMUSG00000061080_ENSMUST00000099761|mus_hu|FALSE|FALSE (ssRNA)
RNA: GGGAGUUCUACAGUCCGACGAUCUAUUCUGUGUGACGCAUUUUUGUGUGUUUUUUAAAUUAUUUUUAAAUUUUUAUUCUAUUAACAUUUGCUGAGAAGGCAGAGCAGAGAUGCUGCCAGCAGCCACAGUGGUACGGCCAGACUCAACAGAGGAUUGAGCAUCA
B8: chr14:21542388:21542389:+_ENSMUSG00000021819_ENSMUST00000022358|mus_hu|FALSE|FALSE (ssRNA)
RNA: GGGAGUUCUACAGUCCGACGAUCGAAGGCGCUGCGGGCACUCCGGAUCGCAUUCACAAAGUCGUCGUAGUCCGCAGGAGUCAGGUGAAUCAAGCGGUGGUGGAUGUACUGCAUGUAUGCCUGCUGGCAGCGCUGCACCAGUUGCAACAGAGGAUUGAGCAUCA
B9: chr7:135049633:135049634:+_ENSMUSG00000030802_ENSMUST00000151451|mus_hu|FALSE|FALSE (ssRNA)
RNA: GGGAGUUCUACAGUCCGACGAUCGUCAGGCUUGUCCUCAUGCAGCGCCAGGUGAUGCGUGGCCAACAUGCGGAUUCCAAGCCUCGAAGUCAGCGUCUUGUCCAAGAAGUAGCGGACGAGCUUUUCAUCCUCUAUGUGCUUCCGCAACAGAGGAUUGAGCAUCA
B10: chr16:20683585:20683586:+_ENSMUSG00000045983_ENSMUST00000044783|mus_mus|FALSE|FALSE (ssRNA)
RNA: GGGAGUUCUACAGUCCGACGAUCUAUUGCUUCUGUUAACAUCUUCAACUUGAAUAACUCUCCAAUAAACUUGAUAUUCCCUAAAGAGCGCCGCCUAGCUAUGUCCCGGGCUUCUUCUAGCUCUUCUUUCAGGCGUCCCCGUUCCAACAGAGGAUUGAGCAUCA
B11: 191362397_191364812_2319_CDS_ENSG00000151690_ENST00000281416|human|control|control (ssRNA)
RNA: GGGAGUUCUACAGUCCGACGAUCGUCAGAGUGAGUCUCACAUGGGACAGGCUGGGCUCUACCAGCAGGAGAAUUUUCCCUAUUCUCAUUGGUCCCCUGUAAAGGCUGUAUCUCAGAAGCACGGUUGUCUCUUGUGAGUUGCAUCAACAGAGGAUUGAGCAUCA
B12: chr5:24101842:24101843:-_ENSMUSG00000028949_ENSMUST00000030791|mus_hu|FALSE|FALSE (ssRNA)
RNA: GGGAGUUCUACAGUCCGACGAUCCUCCUGGAUGUCCACCCGCUUCCGCAUGAUGGUUUGAUCCAGUUUCCUCUCAAAUGCCAAGAGGUCCAUGUAAGCCUGGGACUCGGGGACCAGCUCCCGAAUCCUUUGAGGGAGGAUUUUCAACAGAGGAUUGAGCAUCA
B13: chr14:21833301:21833302:-_ENSG00000092201_ENST00000216297|hu_mus|motif|central (ssRNA)
RNA: GGGAGUUCUACAGUCCGACGAUCAUUGAUGCUAAAAACCAUCCCUUUCUUUAGCUUGUACUGAUUUUUACUAUUGAUUACGGGAGAGCCUUCACGGAAUUCAAUUCCCAUCCCAAAUCCUAGAUUCUUUGUAAUUUUGUUCAGCAACAGAGGAUUGAGCAUCA
B14: 84350868_84366539_748_CDS_ENSG00000065609_ENST00000520302|human|control|control (ssRNA)
RNA: GGGAGUUCUACAGUCCGACGAUCGUAAAUUUCUAGAGCAUCUUUACAUUGUCCUUUCUUCAUUUCAAAAAACUUUUCGAGUAAGUUAAUAACACCAUCAUUGUAGCAAGCAAAAAGUUUGAUAAGAUCUUUGAAAAGAAGCAUCAACAGAGGAUUGAGCAUCA

Biological target: T1, UNK ZnF1-3
Assay: nsRBNS (natural sequence RNA bind-n-seq); RBNS binding buffer (assumed for nsRBNS): 25 mM Tris pH 7.5, 150 mM KCl, 3 mM MgCl2, 0.01% Triton X-100, 500 ug/ml BSA, 20 U/ml SUPERase-In, 4 C; UNK is unkempt and MSI1 is Musashi-1; names of the RNAs are library labels; protein concentration not given here; high values mean tight binding

Binder | binding signal
B1 | 1.23 enrichment R
B2 | 0.941 enrichment R
B3 | 1.88 enrichment R
B4 | 0.29 enrichment R
B5 | 0.266 enrichment R
B6 | 0.499 enrichment R
B7 | 2.34 enrichment R
B8 | 1.13 enrichment R
B9 | 0.273 enrichment R
B10 | 0.573 enrichment R
B11 | 0.746 enrichment R
B12 | 0.648 enrichment R
B13 | 0.763 enrichment R
B14 | 0.923 enrichment R
